# Values of other authors in patent publication US9907859B2 (priority 2010, dated 2018).
# Settings: cited from earlier work
compound,measurement,setting,value
CC(O)COC[C@H]1O[C@@H]2O[C@H]3[C@H](O)[C@@H](O)[C@@H](O[C@H]4[C@H](O)[C@@H](O)[C@@H](O[C@H]5[C@H](O)[C@@H](O)[C@@H](O[C@H]6[C@H](O)[C@@H](O)[C@@H](O[C@H]7[C@H](O)[C@@H](O)[C@@H](O[C@H]8[C@H](O)[C@@H](O)[C@@H](O[C@H]1[C@H](O)[C@H]2O)O[C@@H]8COCC(C)O)O[C@@H]7COCC(C)O)O[C@@H]6COCC(C)O)O[C@@H]5COCC(C)O)O[C@@H]4COCC(C)O)O[C@@H]3COCC(C)O (stereo partly drawn) [2-hydroxypropyl-β-cyclodextrin],Aqueous solubility (g/100 mL),at 25° C.,65%
same,Aqueous solubility (g/100 mL),at 50° C.,80%

# Like-named read-outs stand apart in the source and are kept apart here.
